Measured values taken from PubChem BioAssay AID686970 (National Center for Advancing Translational Sciences (NCATS), 2013).
Several values for one entry are separate records, joined by “and”; a condition that tells them apart may be missing. Equal entries are not always repeated. Among all 360,000 compounds or so, about 6,000 (1.7%) were called active. The inconclusive results got no clear call from the source; some entries with a clear call stand among them for comparison. Calls come from the whole dose curve; as a rule, active = well fitted cell-killing curve with a large enough effect; inconclusive = small, poorly fitted or top-dose-only effect, or effect the other way; inactive = flat fitted curve, though single readings scatter. Where the call is inconclusive, the potency comes from a doubtful curve fit. A structure can be active in one record and inactive in another.

Assay: qHTS for induction of synthetic lethality in tumor cells producing 2HG: qHTS for the HT-1080-NT fibrosarcoma cell line;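 note: NT is the 2HG producing partner of a matched IDH1 knockdown line; nearly all actives have a fitted effect of over 55% in size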;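 for activity, negative = less viability: 0% = DMSO-treated cells and -100% = media-only wells without cells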
Details: HT-1080-NT fibrosarcoma viability, CellTiter-Glo ATP luminescence, 48 h; activity, negative = less viability: at 46.1 µM (top of the series) unless noted
Method in brief: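 Viability of the 2HG-overproducing fibrosarcoma line after 48 hours of compound exposure at 37 degrees C was determined by luminescence with CellTiter-Glo, and concentration-effect curves were then fitted and categorized.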
Potency is the fitted concentration of half-maximal effect; tags give direction and shape of the fitted curve.

Row | Compound | Potency | activity, negative = less viability
1 | O=C(COc1ccccc1/C=C1\SC(=S)NC1=O)Nc1ccc(F)cc1 | inconclusive: 9.2 µM [cytotoxic, partial curve] | 
2 | COc1ccc(-c2nc3ccc(Br)cn3c2Cc2ccc(C)cc2)cc1OC | inconclusive: 29.1 µM [cytotoxic, single point] | 
3 | COc1ccc(/C=C2\COc3ccccc3C2=O)c(OC)c1 | inconclusive: 29.1 µM [cytotoxic, single point] | 
4 | CC(C)(C)C(=O)COc1ccccc1[N+](=O)[O-] | inactive | 
5 | COCCOC1CCN(C(=O)c2cc(COc3ccc(F)cc3F)on2)CC1 | inactive | 
6 | CCOC(=O)N1CCC(NC(=O)c2ccc3c(c2)N=C(CC)c2cc(C)ccc2S3)CC1 | inconclusive: 2.91 µM [cytotoxic, full curve] | 
7 | CCOc1ccc(C(=O)Nc2cc(NC(=O)c3ccc(OCC)c(Cl)c3)cc(C(=O)O)c2)cc1Cl | inactive | 
8 | Cn1nc(C(C)(C)C)cc1N1C(=O)CCC1(C)C(=O)NCc1ccccc1 (stereo unspecified) | inconclusive: 16.4 µM [rising, single point] | 
9 | CCOc1ccc(Oc2ccccc2NC(=O)CSCC(=O)Nc2cc(C)on2)cc1 | inconclusive: 32.6 µM [cytotoxic, single point] | 
10 | O=C(O)CCN1C(=O)/C(=C\c2cccc(OCC(=O)Nc3ccc(Cl)cc3)c2)SC1=S | inconclusive: 18.4 µM [cytotoxic, single point] | 
11 | Cc1cccc(NC(=O)CCC(=O)Nc2nnc(C(F)(F)F)s2)c1 | inconclusive: 29.1 µM [rising, single point] | 
12 | CCCCC(=O)Nc1ccc2c3c(cccc13)C(=O)N2CC | inconclusive: 35.5 µM [cytotoxic, single point] | 
13 | Cc1ccc(NC(=O)N2CCCC2C(=O)NCC2CCCCC2)cc1 (stereo unspecified) | inactive | 
14 | COc1ccc(NC(=O)CSc2ncc(-c3ccc(F)cc3)n2Cc2ccco2)cc1 | inconclusive: 14.1 µM [cytotoxic, partial curve] | 
15 | Cc1ccc(C(=O)Cn2c(C(=O)OCCO)cc3ccccc32)cc1 | inconclusive: 10.3 µM [cytotoxic, partial curve] | 
16 | O=S(=O)(Nc1ncccn1)c1ccc(NC(=S)NCCc2ccccc2)cc1 | inactive | 
17 | Cc1ccc(C)c(N2CCN(C(=O)c3cc4c(C)nc5ccccc5c4o3)CC2)c1 | inactive | 
18 | CC(C)(C)C(=O)OCc1nc(-c2ccc(O)c(O)c2)cs1 | inconclusive: 25.9 µM [cytotoxic, partial curve] | 
19 | COc1ccc(-c2oc3ccccc3c(=O)c2OC(C)=O)cc1 | inconclusive: 10.3 µM [cytotoxic, partial curve] | 
20 | CCOC(CNC(=O)c1cc2c(=O)n(CC)c3ccccc3c2s1)OCC | inactive | 
21 | COc1ccc(-c2nc(SCC(=O)Nc3cccc(S(N)(=O)=O)c3)n[nH]2)cc1 | inactive | 
22 | C=Cn1c(C(=O)O)ccc1-c1ccc(CC)cc1 | inactive | 
23 | Cc1cc(C)c(S(=O)(=O)NCC2CCC(C(=O)NCCCN3CCC(C)CC3)CC2)c(C)c1 (stereo unspecified) | inconclusive: 23.1 µM [cytotoxic, single point] | 

Row | Compound | Potency | activity, negative = less viability
24 | Cc1cc(C)n(C(=O)/C(C#N)=C/N(C)C)n1 | inactive | 
25 | CCN(CC)c1ccc(/C=C2\CCC(/C=N/NC(=O)c3ccc(=O)n(C)c3)=C2N2CCOCC2)cc1 |  | inconclusive: -16.1% [cytotoxic]
26 | CN(C)c1ccc(C(=O)OCC(=O)NC2CCCCCC2)cc1 | inactive | 
27 | NC(=NCCCCCCN=C(N)/N=C(\N)Nc1ccc(Cl)cc1)/N=C(\N)Nc1ccc(Cl)cc1 | inactive and active: 10.3 µM and active: 14.6 µM | 
28 | COc1ccc(/C=C2\CN(Cc3ccccc3)C/C(=C\c3ccc(OC)cc3)C2=O)cc1 | inconclusive: 18.4 µM [cytotoxic, single point] | 
29 | Cc1cccc(NC(=O)CC2SC(=O)N(c3ccccc3)C2=O)c1 (stereo unspecified) | inactive | 
30 | CSCCC(c1nnnn1-c1c(C)cccc1C)N1CCN(C/C=C/c2ccccc2)CC1 (stereo unspecified) | inconclusive: 23.1 µM [cytotoxic, single point] | 
31 | O=C(NCc1ccccc1)C1CCN(S(=O)(=O)c2ccc(Cl)cc2)CC1 | inactive | 
32 | Cc1ccc(NC(=O)C2CC(=O)n3ncnc3N2)cc1C (stereo unspecified) | inconclusive: 29.1 µM [rising, single point] | 
33 | CCCCC1CCC(C(=O)N(CCCC)c2c(N)n(CCCC)c(=O)[nH]c2=O)CC1 (stereo unspecified) | inactive | 
34 | C/C(=N\NC(=S)NCc1ccccc1)c1ccc(C#N)cc1 | inactive | 
35 | CC(C)(C)C1CCN2CCC[C@](c3ccccc3)(C1)[C@@]21CO1 (stereo partly specified) | inactive | 
36 | O=C(NN1C(=O)C2C(c3ccccc3)C=CC(c3ccccc3)C2C1=O)c1cccc(Br)c1 (stereo unspecified) | inconclusive: 29.1 µM [cytotoxic, partial curve, poor fit] | 
37 | CC1Nc2ncnc(N3CCc4ccccc4C3)c2N(Cc2ccc(Br)cc2)C1=O (stereo unspecified) | inconclusive: 29.1 µM [cytotoxic, single point] and inconclusive: 23.1 µM [cytotoxic, single point] | 
38 | CCO[C@H]1OC(C(=O)Nc2ccccc2)=C[C@@H](c2ccc(Br)cc2)[C@@H]1CCCO | inconclusive: 32.6 µM [cytotoxic, single point] | 
39 | CCOC(=O)c1nn(-c2cccc(C)c2)c2nnc(Cc3ccc(C)cc3)c(=O)n12 | inactive | 
40 | COc1ccccc1CNC(=O)C/C(C)=N/NC(=O)Cc1ccccc1 |  | inconclusive: 3.19%
41 | Cn1cc(C(=O)N/N=C/C(Br)=C/c2ccccc2)ccc1=O | active: 20.6 µM | 
42 | CN1CCN(c2ncnc3c2c(-c2ccccc2)cn3-c2ccc(F)cc2)CC1 | active: 23.1 µM | 
43 | CC1CCC(CN2C(Nc3ccccc3)=NC[C@@H]2Cc2ccccc2)CC1 (stereo partly specified) | inconclusive: 25.9 µM [cytotoxic, single point] | 
44 | Cc1cc(C(O)c2ncc(-c3ccc(Oc4ccccc4)cc3)[nH]2)ccc1F (stereo unspecified) | active: 18.4 µM | 
45 | COc1ccc(NS(=O)(=O)c2ccc3oc(SC(C)C(N)=O)nc3c2)cc1 (stereo unspecified) |  | inconclusive: -3.23% [cytotoxic]
46 | CCc1cc2c(=O)oc(-c3ccc(Br)cc3)nc2s1 | inactive | 
